Screen size: about 420,000 compounds; about 50,000 (12%) were called active. This list was built around the results that the source calls inconclusive (neither active nor inactive); the mix of calls is not that of the screen. Calls follow the shape of the dose curve; as a rule, active = well fitted inhibition curve with a large enough effect; inconclusive = small, poorly fitted or top-dose-only effect; inactive = flat fitted curve, though single readings scatter. No potency is given beside an inconclusive call; the fits are too rough.
Test: qHTS for Inhibitors of human tyrosyl-DNA phosphodiesterase 1 (TDP1): qHTS in cells in presence of CPT; also: nearly all actives have a fitted effect of over 55% in size
Conditions: chicken DT40 Tdp1-/-;hTDP1 cells + 20 nM CPT, ATP luminescence, 48 h; activity change, negative = growth inhibition: at 46.2 µM (top of the series) unless noted
How it was run: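 Chicken DT40 Tdp1-/- cells stably complemented with human TDP1 were seeded at 400 cells/well in medium containing 20 nM camptothecin, exposed to pin-transferred compounds, and grown at 37 °C for at least 48 hr. Viability was read as ATP luminescence.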
% is scaled to controls: 0 for no effect and ±100 for the full control effect; potency is read from the fitted curve at half-maximal effect; tags tell the direction and shape of the fitted curve.

Compound | activity change, negative = growth inhibition | Potency
O=c1c(NCc2cccs2)nccn1-c1ccc(F)cc1 | inactive: -16.6% | –
Cc1cc2cc(CNS(=O)(=O)c3ccc4ccccc4c3)ccc2n1C | inactive: 1.38% | –
CC(C)c1ccc(COc2ccc(C(=O)N3CCOCC3)cc2)cc1 | – | inconclusive [inhibitor, single point]
O=C(OCC(=O)N1CCCc2ccccc21)c1cccc(S(=O)(=O)N2CCc3ccccc32)c1 | – | inconclusive [inhibitor, single point]
Cc1nnnn1/C(=C\c1ccccc1)C(=O)OCC(=O)Nc1cccc(S(=O)(=O)N(C)C)c1 | – | active: 10.3 µM
Cc1nn(Cc2ccc(C(=O)N3N=C(C(F)F)CC3(O)C(F)F)cc2)c(C)c1[N+](=O)[O-] (stereo not drawn) | – | inconclusive [inhibitor, single point]
CCN(CC)CCCNC(=O)Cc1csc2nc(-c3ccc(Cl)cc3)cn12 | – | inconclusive [inhibitor, single point]
Cc1ccc(S(=O)(=O)N2CCCCCC2)cc1[N+](=O)[O-] | – | inconclusive [inhibitor, partial curve]
NC(=S)Nc1cccc2cc3ccccc3cc12 | inactive: -28.3% | –
O=C(c1ccccc1)N1CCCCC(Sc2nnnn2-c2ccccc2)C1=O (stereo not drawn) | inactive: -7.9% | –
Cc1ccc2nc(-c3ccc(C)o3)c(Nc3ccc(F)cc3)n2c1 | inactive: 1.99% | –
CC(=O)[C@H]1CC[C@H]2C3CC=C4C[C@@H](O)CC[C@]4(C)C3CC[C@]12C (stereo partly drawn) | inactive: 6.29% | –
Cc1cccc(CCNC(=O)c2cc3c(=O)n(C)c4ccccc4c3n2C)c1 | – | inconclusive [inhibitor, single point]
CCOc1ccccc1-c1cc(C(=O)N/N=C(\C)c2cccnc2)c2ccccc2n1 | – | inconclusive [inhibitor, partial curve]
O=C(CCSCc1ccccc1Cl)NCc1ccc(F)cc1Cl | – | inconclusive [inhibitor, single point]
CCCCc1ccc(C2C3=C(CC(C)(C)CC3=O)NC3=C2C(=O)c2ccccc23)cc1 (stereo not drawn) | – | inconclusive [inhibitor, single point]
Cc1ccc2c(CC(=O)OC(C)C(=O)NCc3ccc4c(c3)OCO4)coc2c1 (stereo not drawn) | inactive: -1.85% | –
CC(C)c1ccc(NS(=O)(=O)c2ccc3c(c2)NC(=O)CO3)cc1 | – | inconclusive [inhibitor, single point]
CCOCCCn1c(=S)[nH]c2cc(C(=O)N3CCN(c4ccccc4)CC3)ccc2c1=O | – | inconclusive [inhibitor, single point]
CCc1cc2c(cc3c(=O)n(CCCC(=O)NCc4cccc(Cl)c4)ncn32)s1 | – | inconclusive [inhibitor, single point]
Cc1cc(=O)c2cccc(Br)c2[nH]1 | inactive: -21.8% | –
Oc1ccc(C2C(c3ccccc3)=NN=C(c3ccc(Cl)cc3)N2O)c(O)c1 (stereo not drawn) | inactive: -14.6% | –
Cc1cccc(N2CCN(C(=O)c3noc4c3COc3ccc(C)cc3-4)CC2C)c1 (stereo not drawn) | – | inconclusive [inhibitor, single point]
Cc1cc(C)n(-c2ccc(C(=O)OC(C)C)cc2)n1 | – | inconclusive [inhibitor, single point]
O=C(C[n+]1cccc2ccccc21)c1ccc(Cl)cc1 | inactive: -21.7% | –

Compound | activity change, negative = growth inhibition | Potency
CCN(CC)CCn1c(=S)[nH]c2ccc(Cl)cc2c1=O | inactive: -1.18% | –
Cc1ccc(CN2C(=O)c3ccccc3CC2(C)C(=O)NC2CCCCC2)cc1 (stereo not drawn) | – | inconclusive [inhibitor, single point]
COc1cc2c3c(c1)c(N=NC(N)=S)c(O)n3C(C)(C)C=C2C | – | active: 4.61 µM
CC(=O)NC1=NN(C(C)=O)C2(S1)C(=O)N(C(C)=O)c1ccc(C)cc12 (stereo not drawn) | – | inconclusive [inhibitor, single point]
O=C(NCC(c1ccco1)N1CCN(c2ccc(F)cc2)CC1)C(=O)NC1CCCC1 (stereo not drawn) | – | inconclusive [inhibitor, single point]
CC(C)(C)c1ccc(S(=O)(=O)NCCc2ccncc2)cc1 | – | inconclusive [inhibitor, single point]
CCNC(=O)CCS(=O)(=O)c1ccc2ccccc2c1 | inactive: -13.1% | –
CN(C)CCCNC(=S)Nc1ccc(Oc2ccccc2)cc1 | inactive: 4.47% | –
Cc1ccc([C@H]2C[C@H](O)[C@@H](n3cc(C4CC4)nn3)CN2Cc2cccs2)cc1 | – | active: 9.2 µM
Cc1cc2oc(=O)cc(CN(Cc3ccccc3)Cc3ccccc3)c2cc1Cl | – | inconclusive [inhibitor, single point]
COc1ccccc1CN1C(=O)c2cccc3cccc(c23)C1=O | inactive: -19.5% | –
COc1cccc(NC(=O)C2CCN(S(=O)(=O)c3ccc4[nH]c(=O)ccc4c3)CC2)c1 | inactive: 7.04% | –
CCNC(=O)/C(C#N)=C/c1c(N2CCN(c3ccccc3)CC2)nc2ccccn2c1=O | – | inconclusive [inhibitor, single point]
Cc1ccc(OCCCCn2ccnc2)c(Cl)c1 | – | inconclusive [inhibitor, single point]
Cc1nnc(SCc2cc(=O)[nH]c(Nc3nc(C)c4cc(C)c(C)cc4n3)n2)s1 | inconclusive: -25.8% [inhibitor] | –
COc1ccc(-c2sc(Nc3ccc(F)c(F)c3F)nc2CCC(=O)NN)cc1 | – | inconclusive [inhibitor, single point]
CCOC(=O)C1=C(C)N(C)C(C)=C(C(=O)OCC)C1c1cccnc1 | – | inconclusive [inhibitor, single point]
O=C(C1CCN(S(=O)(=O)c2cccc3nsnc23)CC1)N1CCn2c1nc1ccccc12 | – | inconclusive [inhibitor, single point]
Cn1nnnc1SCCNCc1cc(Br)ccc1OCc1ccccc1Cl | – | active: 23.1 µM
CCCCc1nnc(NC(=O)c2oc3ccccc3c2C)s1 | inactive: -0.277% | –
COc1ccccc1N1CCN(CCN(C(=O)C2CCCCC2)c2ccccn2)CC1 | – | inconclusive [inhibitor, single point]
Cc1csc(=O)n1CC(=O)OC(C)C(=O)Nc1cccc(Cl)c1 (stereo not drawn) | inactive: -14.7% | –
COc1cc2c(cc1OC)C(C)N(C(=O)c1cc3n(n1)C(C(F)(F)F)CC(c1ccco1)N3)CC2 (stereo not drawn) | – | inconclusive [inhibitor, single point]
COc1ccccc1N1C(=O)S/C(=C\c2ccc(C)s2)C1=O | – | inconclusive [inhibitor, partial curve]
CCOC(=O)c1[nH]ncc1CN1CCCC(C(=O)c2ccc(OC)cc2C)C1 (stereo not drawn) | inactive: 9.78% | –

Compound | activity change, negative = growth inhibition | Potency
CC(=O)n1cc([C@@H]2C=C(C(=O)O)O[C@H](OCc3ccc(CO)cc3)C2)c2ccccc21 | inactive: -0.655% | –
O=C1CC(c2ccco2)CC(O)=C1C=NCCN1CCN(C(=S)Nc2ccccc2)CC1 (stereo not drawn) | inactive: -12.1% | –
CCC(C)(C)n1nnnc1CN1CCC(c2nc3ccc(C)cc3[nH]2)CC1 | – | inconclusive [inhibitor, partial curve]
Nc1nc2c(ncn2[C@@H]2O[C@H](CNCc3ccc4ncccc4c3)[C@@H](O)[C@H]2O)c(=O)[nH]1 | inactive: 5.66% | –
Cc1ccc(S(=O)(=O)N(C)CC(=O)OCC(=O)NC(=O)Nc2ccc3c(c2)OCCO3)cc1 | – | inconclusive [inhibitor, single point]
COC(=O)c1c(-c2cccs2)csc1NC(=O)COc1ccc(C)cc1 | – | inconclusive [inhibitor, partial curve]
COc1cccc(OC)c1C(=O)NCCc1csc(-c2ccc(Cl)cc2)n1 | – | inconclusive [inhibitor, single point]
Cc1nnc(SCC(=O)N(C2CCCCC2)C2CCS(=O)(=O)C2)n1C (stereo not drawn) | inactive: -20.4% | –
CN(CC(=O)O)c1ccc(/C=C/c2ccnc3ccccc23)cc1 | – | active: 11.2 µM
CCN(C(=O)CN1C(=O)S/C(=C\c2ccc(F)cc2)C1=O)C1CCS(=O)(=O)C1 (stereo not drawn) | – | inconclusive [inhibitor, single point]
COc1ccccc1/C=C/C=N/NC(=O)c1cc(-c2ccco2)[nH]n1 | – | inconclusive [inhibitor, single point]
CN1CCN(c2ncc3c(n2)CCN(Cc2ccc(Br)s2)C3)CC1 | – | active: 23.1 µM
CCOc1ccc(NC(=O)COc2ccc(S(=O)(=O)NC3CCCCC3)cc2)cc1 | – | inconclusive [inhibitor, single point]
CCOC(=O)CSc1ccc2nnc(CCNS(=O)(=O)c3ccc(C)cc3)n2n1 | inactive: -14.5% | –
C=CCC[C@@H](Cc1ccc(F)cc1)C(=O)OC[C@@H](NC(=O)[C@H](CC=C)CC(=O)NCCO)C(C)(C)C | – | inconclusive [inhibitor, partial curve, poor fit]
CCC(=O)NC(=S)Nc1ccc(NC(=S)NC(=O)c2ccccc2)cc1 | – | inconclusive [inhibitor, partial curve]
Cc1onc(-c2ccccc2)c1C(=O)NC(=S)NNC(=O)c1ccccc1O | – | active: 3.66 µM
CCc1ccc2[nH]c(=O)c(CN(Cc3ccccc3OC)C(=O)Nc3ccccc3OC)cc2c1 | – | active: 18.4 µM
CSc1cc(C)c(OCC(=O)Nc2c(C)nn(C)c2C)c(C)c1 | – | active: 14.6 µM
CCOc1ccc(C(=O)NCCN2CCCCC2)c(OCC)c1 | inactive: 1.91% | –
CC(C)c1ccc(NC(=O)CCNC(=O)Cn2cnc3ccccc3c2=O)cc1 | inactive: 1.67% | –
CCCn1c(SCC(=O)Nc2cccc(C)n2)nc2c1c(=O)n(C)c(=O)n2C | – | active: 18.4 µM
Cc1cccc(CN(CC(=O)N/N=C/c2ccco2)S(=O)(=O)c2ccc(Cl)cc2)c1 | – | inconclusive [inhibitor, partial curve]

Source: PubChem BioAssay AID686979 (National Center for Advancing Translational Sciences (NCATS), 2013)
